# Reference: the supplement of paper PMC3334620
# Over roughly 33,000 sequences, “E-score (-0.5 to 0.5)” has its median near -0.04; the highest 2% begin near 0.36. The list shows a part of the results.
# Biological target: T1, Hmlalpha2 (UniProt P0CY09)
# T1 sequence: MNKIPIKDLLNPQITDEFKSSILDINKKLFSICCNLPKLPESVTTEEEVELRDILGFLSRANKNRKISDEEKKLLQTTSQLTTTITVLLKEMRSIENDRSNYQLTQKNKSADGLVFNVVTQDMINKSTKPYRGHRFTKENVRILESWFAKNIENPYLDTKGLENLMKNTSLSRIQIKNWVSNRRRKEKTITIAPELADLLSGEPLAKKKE
# Assay: PBM E-score (8-mer binding enrichment) (E-score (-0.5 to 0.5)); higher = stronger / more preferred TF binding; most listed sequences are background and not binding sites
# Settings: protein concentration: 200 nM; construct: GST-full length
# Summary of the method: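 E-scores (a modified Wilcoxon-Mann-Whitney statistic) were assigned by the Universal PBM Analysis Suite to every ungapped eight-base word pooled with its reverse complement. The input came from universal all-10-mer Agilent arrays made double-stranded by primer extension and probed with GST-tagged yeast transcription factors at about 100-200 nM. Fluorescent anti-GST detected bound protein, and masliner normalised the scans.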
row,Sequence,PBM E-score
1,AACATAGC,0.302
2,CGATAGCG,-0.173
3,ACTAAATA,0.0908
4,CCAGCGGA,-0.195
5,ACGCATGC,0.247
6,CCCTCTTA,-0.176
7,AAGGCTTG,-0.117
8,CAACGTAC,0.191
9,CTCTCACC,-0.106
10,GTTATCTA,-0.0962
11,CGACATCG,0.0366
12,ACAGCCCT,-0.0612
13,AACACCGT,0.0335
14,GACCAGCA,-0.198
15,TCCTTGAA,-0.0733
16,AGGGTTCG,-0.231
17,TATTGACA,0.303
18,CCAGGTCC,-0.333
19,ACGGATAT,0.0727
20,AGCGCGAA,-0.0236
21,CTGCGGAA,-0.283
22,GATATTCA,-0.165
23,AATTAGCT,0.0319
24,GCCCCCCC,-0.373
25,CGTGTACA,0.467

row,Sequence,PBM E-score
1,CACTTTAA,0.0285
2,ATACCACG,0.0559
3,AGATTCGC,-0.135
4,ATGGCGTG,-0.00649
5,CCTAGACG,-0.214
6,CTAATTTA,0.25
7,CACTGCAG,-0.197
8,GAAAGCGC,-0.011
9,GAACCTTC,-0.06
10,ACCAAAGT,-0.0226
11,CGAAGCAG,-0.247
12,AACCAGTG,-0.035
13,ACAGCTGG,-0.162
14,TTCCTCAA,0.036
15,GTAAAAGA,0.293
16,AGGAGCCA,-0.196
17,AACACTCA,0.131
18,TGGTGGAA,-0.0717
19,ACAGGCCG,-0.00834
20,GAGTACTC,0.0474
21,GCAGTGTA,0.292
22,AGTCTCCG,-0.22
23,AAGGACAT,0.201
24,GCTGCCAC,-0.213
25,GAAAAATA,0.035

row,Sequence,PBM E-score
1,AGATACTC,-0.0627
2,ACTGACGA,0.057
3,TAAGTTAA,0.179
4,ACATCGCG,0.177
5,GATTGTGC,0.0144
6,TCGGTAAA,0.19
7,CCTGCCGC,-0.316
8,ACCAGCTC,-0.0549
9,CGTCAACG,0.0662
10,AAAATCCT,-0.033
11,ATGCCCGG,-0.309
12,CCTGGATA,-0.306
13,ACCTTTTA,0.00411
14,ATCCTTTG,-0.0584
15,CCGCCGCG,-0.202
16,GATCGGCC,-0.222
17,CACTTTTC,-0.135
18,GTATGCAC,0.133
19,ACGATACC,-0.0403
20,AAGCAGAT,-0.145
21,CGTGTCTC,0.0847
22,ATGTCACC,-0.02
23,CGTACACA,0.347
24,TGCGATAA,0.123
25,TGCAAACA,0.193

row,Sequence,PBM E-score
1,CGAATCGA,0.178
2,ACTAGGCG,0.00872
3,GTTGTAGA,0.325
4,CGTTGCTC,0.00228
5,ATCCCGCG,-0.117
6,CGAAAAGA,0.199
7,ATGTAGAA,0.43
8,AAATCGCC,-0.343
9,CACAGTTA,0.265
10,CAATCAAG,0.0126
11,ATGAGTTG,-0.00258
12,CGTACGCC,0.0378
13,GGGAGCTA,-0.105
14,GAGCGTGA,-0.134
15,CTCGTGGA,-0.107
16,ATAAGGCA,-0.0529
17,GAATGTCC,-0.108
18,AAGGATCA,-0.0579
19,TAGCTGGA,-0.104
20,AACTTTAA,0.135
21,ATGAAGAC,0.028
22,GAAAGCCA,-0.278
23,AAAAATTA,0.172
24,CTGTCACA,0.00436
25,ATGCGTGC,0.15

row,Sequence,PBM E-score
1,CATCAACA,0.297
2,CACATGTG,0.163
3,AATGTCCG,-0.122
4,AGACTGGA,-0.0528
5,TGAGCTCA,0.0748
6,CCTGGCTA,-0.198
7,CACAAGGC,0.033
8,CAGGAGTC,-0.149
9,AGTTACTG,0.0811
10,ATGATGTC,0.0939
11,ACTGAAAT,-0.0297
12,CCCTCAGG,-0.294
13,AGAAATGG,-0.106
14,CGATCCGC,-0.177
15,ACTCGGGA,-0.201
16,AGTATTAC,0.317
17,AACGTGGC,0.012
18,CACAGAGA,0.0962
19,AAGCCCAA,0.017
20,CAATCTAG,0.0661
21,CAACCGGA,-0.0983
22,GACCTGCC,-0.209
23,CGGTAAAA,0.152
24,CCTTCCTC,-0.273
25,CACTAACG,0.0194

row,Sequence,PBM E-score
1,GAATATTC,-0.0157
2,GCGTGACC,-0.136
3,GAATCCAA,-0.269
4,GACGGGAC,-0.311
5,ACCCAGTG,-0.0618
6,AAGGAAAC,-0.113
7,ACACACTA,0.305
8,AATGCATT,-0.0692
9,ATCCAACG,-0.135
10,CAGGTTAC,0.018
11,AACCATGA,0.149
12,CGGAGAGA,-0.145
13,TAGCGATA,0.0182
14,AGGCGAAA,-0.282
15,CAGGATGG,-0.197
16,CGGGCGAA,-0.173
17,GGGCGAAC,-0.178
18,GTCGGTTA,-0.121
19,CATCTTCC,-0.0227
20,ACCGTCGT,-0.0335
21,ACATTGGC,0.126
22,CACCGGAC,-0.124
23,CTATTTCA,0.0151
24,CTGGGCTA,-0.159
25,ACGAGCAG,0.017

row,Sequence,PBM E-score
1,AGCGACGG,-0.0437
2,CGCCAGGA,-0.115
3,AAATCATA,0.166
4,AAGCGAAC,0.0416
5,CGCGCTCA,0.00653
6,ATACGACC,-0.238
7,ATCAACTA,0.201
8,GCAAAGGA,0.048
9,ACATACCC,0.32
10,GAATTGCC,-0.248
11,ATATTCCC,-0.241
12,AAAGCAGA,-0.141
13,GACCAACC,-0.0726
14,CAAGAGGA,-0.0687
15,CGCCAGCG,-0.232
16,ACATGATC,0.426
17,TTGTGAAA,0.179
18,AAGGTTTA,0.14
19,CACCCTGC,-0.15
20,ACGGAAGC,0.0529
21,TACCTCAA,-0.00402
22,GCATTCCC,-0.251
23,AAGGGTCA,-0.22
24,ATCTTCTA,-0.0325
25,GATTTGGA,-0.00992

row,Sequence,PBM E-score
1,CATAAATC,0.0257
2,GAGTAACA,0.258
3,ATTATGCA,0.113
4,CCGGGAAA,-0.124
5,AAAGCATG,0.218
6,GGGAGGGA,-0.282
7,GCTCTCCC,-0.266
8,AAAATATT,0.0282
9,AATGGGGC,-0.307
10,AGTGGACC,-0.288
11,ATGTCCGA,-0.0418
12,CATTAAAC,0.289
13,CGATTTAA,0.0944
14,CTGTAACC,0.0254
15,CAGGGATG,0.0507
16,AACTCACG,0.205
17,TAGTGAGA,-0.0514
18,AGTGGTCG,-0.0589
19,CCTATACG,-0.0575
20,TAGTTCAA,0.0271
21,GGAGTCCC,-0.261
22,ATCTAACA,0.113
23,ATGGAGCG,-0.0564
24,GGGAAGGA,-0.0843
25,CGGCGGTA,-0.0603

row,Sequence,PBM E-score
1,AAAAAATG,0.0711
2,GTTATAGA,0.368
3,CCAACGGC,-0.235
4,CGGATTAG,-0.233
5,TCCGCAAA,-0.0439
6,GCGGCTGA,-0.32
7,AACGTCCA,0.0778
8,AAGATCTA,-0.0518
9,CCCGGTGC,-0.339
10,CCCTATAC,-0.13
11,ATTGGCGG,0.0274
12,CGGAAGCA,0.175
13,ATCGGACA,-0.0193
14,ACCCCAAG,-0.151
15,GACCTTAC,0.0244
16,CGTGAATA,0.245
17,AAGTACCC,-0.0658
18,CATATATC,-0.00387
19,CCTGTTAG,0.0951
